Source: patent US20230278972A1, “SUBSTITUTED HALOALKYL SULFONANILIDE HERBICIDES” (FMC Corporation, priority 2020, published 2023)

Tests used:
Settings in all cases: Flood, 250 g ai/ha; visual rating after 13 to 15 days; scale of 0 to 100 where 0 is no effect and 100 is complete control
[1] = test system: ducksalad (Heteranthera limosa); experiment: Test B flooded paddy test, ducksalad
[2] = test system: barnyardgrass (Echinochloa crus-galli); experiment: Test B flooded paddy test, barnyardgrass
rice (Oryza sativa) = experiment: Test B flooded paddy test, rice
[3] = test system: sedge, umbrella (small-flower umbrella sedge, Cyperus difformis); experiment: Test B flooded paddy test, sedge, umbrella

SMILES	Plant response rating, Ducksalad [1]	Plant response rating, Barnyardgrass [2]	Plant response rating, Rice (rice (Oryza sativa))	Plant response rating, Sedge, Umbrella [3]
Cc1cc(C)c(N(S(=O)(=O)C(F)(F)F)S(=O)(=O)C(F)(F)F)cc1C(=O)N1CCC(F)(F)CC1 [Compound 210]	65	10	15	95
Cc1cc(F)c(C(=O)N2CCCCC2)cc1NS(=O)(=O)C(F)(F)F [Compound 211]	80	15	10	75
Cc1cc(F)c(C(=O)N2CCCCC2)cc1N(S(=O)(=O)C(F)(F)F)S(=O)(=O)C(F)(F)F [Compound 212]	0	0	0	0
Cc1cc(F)c(C(=O)N(C)C)cc1NS(=O)(=O)C(F)(F)F [Compound 215]	0	0	0	0
Cc1cc(F)c(C(=O)N(C)C)cc1N(S(=O)(=O)C(F)(F)F)S(=O)(=O)C(F)(F)F [Compound 216]	0	0	0	0
Cc1cc(Cl)c(N(S(=O)(=O)C(F)(F)F)S(=O)(=O)C(F)(F)F)cc1C1=NOC2(CCCCC2)C1 [Compound 217]	65	0	0	80
CC(=O)OCN(c1cc(C2=NOC3(CCCC3)C2)c(C)cc1C)S(=O)(=O)C(F)(F)F [Compound 218]	35	20	0	90
CSC(=O)N(c1cc(C2=NOC3(CCCC3)C2)c(C)cc1C)S(=O)(=O)C(F)(F)F [Compound 219]	30	55	0	90
CC(=O)N(c1cc(C2=NOC3(CCCC3)C2)c(C)cc1C)S(=O)(=O)C(F)(F)F [Compound 220]	30	15	0	95
Cc1cc(Cl)c(NS(=O)(=O)C(F)(F)F)cc1C1=NOC2(CCCCC2)C1 [Compound 221]	30	0	0	95
Cc1cc(Cl)c(N(S(=O)(=O)C(F)(F)F)S(=O)(=O)C(F)(F)F)cc1C1=NOC(C)(C)C1 [Compound 222]	70	20	15	95
Cc1cc(C)c(C(=O)N2CCC3(CCCC3)CC2)cc1NS(=O)(=O)C(F)(F)F [Compound 223]	0	0	0	0
Cc1cc(Cl)c(NS(=O)(=O)C(F)(F)F)cc1C(=O)N1CCC(Cl)CC1 [Compound 224]	75	15	0	90
Cc1cc(C)c(C(=O)N2CCC3(CCCC3)C2)cc1NS(=O)(=O)C(F)(F)F [Compound 225]	75	20	0	98
Cc1cc(C)c(C2=NOC(C)(CCl)C2)cc1NS(=O)(=O)C(F)(F)F (stereo not shown) [Compound 226]	70	45	10	90
Cc1cc(C)c(N(S(=O)(=O)C(F)(F)F)S(=O)(=O)C(F)(F)F)cc1C1=NOC(C)(CCl)C1 (stereo not shown) [Compound 227]	0	0	0	0

SMILES	Plant response rating, Ducksalad [1]	Plant response rating, Barnyardgrass [2]	Plant response rating, Rice (rice (Oryza sativa))	Plant response rating, Sedge, Umbrella [3]
Cc1cc(C)c(C2=NOC3(CCC3)C2)cc1NS(=O)(=O)C(F)(F)F [Compound 228]	75	0	0	95
Cc1cc(C)c(C(=O)N2CCC(S(C)(=O)=O)CC2)cc1NS(=O)(=O)C(F)(F)F [Compound 233]	0	0	0	0
Cc1cc(C)c(C(=O)N2CCC(CC(F)(F)F)CC2)cc1NS(=O)(=O)C(F)(F)F [Compound 234]	0	0	0	0
Cc1cc(F)c(C(=O)N2CC(C)OC(C)C2)cc1N(S(=O)(=O)C(F)(F)F)S(=O)(=O)C(F)(F)F (stereo not shown) [Compound 235]	80	0	0	55
Cc1cc(F)c(C(=O)N2CCC(C#N)CC2)cc1NS(=O)(=O)C(F)(F)F [Compound 236]	50	0	0	35
Cc1cc(F)c(C(=O)N2CCOCC2)cc1N(S(=O)(=O)C(F)(F)F)S(=O)(=O)C(F)(F)F [Compound 237]	35	30	0	65
Cc1cc(F)c(C(=O)N2CC(C)OC(C)C2)cc1NS(=O)(=O)C(F)(F)F (stereo not shown) [Compound 238]	85	20	0	45
Cc1cc(F)c(C(=O)N2CCC(C#N)CC2)cc1N(S(=O)(=O)C(F)(F)F)S(=O)(=O)C(F)(F)F [Compound 239]	0	0	0	0
Cc1cc(F)c(C(=O)N2CCOCC2)cc1NS(=O)(=O)C(F)(F)F [Compound 240]	75	15	0	85
Cc1cc(C)c(C(=O)N2CCC(Cl)CC2)cc1NS(=O)(=O)C(F)(F)F [Compound 242]	75	10	10	80
Cc1cc(C)c(N(S(=O)(=O)C(F)(F)F)S(=O)(=O)C(F)(F)F)cc1C(=O)N1CCC(Cl)CC1 [Compound 243]	65	10	0	98
Cc1cc(Cl)c(NS(=O)(=O)C(F)(F)F)cc1C(=O)N1CCOCC1C (stereo not shown) [Compound 245]	70	45	0	75
COC1CCN(C(=O)c2cc(NS(=O)(=O)C(F)(F)F)c(Cl)cc2C)CC1 [Compound 246]	70	15	30	85
Cc1cc(Cl)c(C(=O)N2CCOCC2)cc1NS(=O)(=O)C(F)(F)F [Compound 248]	40	0	0	90
Cc1cc(Cl)c(C(=O)N2CCOCC2)cc1N(S(=O)(=O)C(F)(F)F)S(=O)(=O)C(F)(F)F [Compound 250]	85	10	0	98
